# Measurements taken from article PMC5515408.
# Some of the results follow. At the low end of the ranking the order means little.
# Test system: MYC (p64) + MAX (p21), in MYC:MAX
# Assay: protein-binding microarray (anti-MAX antibody)
# Conditions: PBM: 15 mM Tris-HCl pH 7.5, 100 mM KCl, 0.075% NP40, 7.5 mM beta-mercaptoethanol, 375 ng/ul BSA, 8 ng/ul poly(dA-dT):(dA-dT), 550 ng complex, 60 min, room …; high values mean tight binding; double strand, one strand shown; sequences stand for … in CCGGC…TTAATAGCTAAGATTACTATATCGACG
row,Sequence,binding signal (log2 normalized fluorescence)
1,TGATCGATGGTA,0.0768
2,TGACACGTACAA,0.498
3,TGACGATTGGTA,-0.0732
4,TGATTCTGCGTA,-0.063
5,TGAGAGGGCGTA,0.0732
6,TGATGCATGGTA,0.364
7,TGACCAGCGGTA,0.0533
8,TGACGAGCAGTA,0.115
9,TGTTACGGGGTA,0.148
10,TGATAAATCGTA,-0.115
11,AGACCCCTGGTA,0.184
12,TGAATAGTAGTA,-0.147
13,CTGCACGTGGTA,0.875
14,TGATGTTGGGTA,0.0135
15,TGAAGAGGCGTA,-0.105
16,TGAGAGATCGTA,-0.0646
17,TGAACCCCAGTA,0.161
18,CGACATGTAGTA,0.368
19,TGAACCTGGGTA,0.00556
20,TGATAAAGAGTA,-0.219
21,TGAAGCCCAGTA,0.0763
22,TGAGTGACTGTA,0.0162
23,TGAGCGATCGTA,-0.067
24,TGATAGAACGTA,-0.0834
25,TGAATAACCGTA,-0.12

row,Sequence,binding signal (log2 normalized fluorescence)
1,TGATAGAAGGTA,-0.0427
2,TGAGAAGTTGTA,-0.0217
3,TGAACTTCCGTA,0.111
4,ATTCACGTGGTA,0.958
5,TGACGGATCGTA,0.00109
6,TGAATAATCGTA,-0.0572
7,TCCCACATGGTA,0.662
8,TGACCTGTTGTA,0.216
9,TGAATTAGCGTA,-0.0202
10,TGATTTCTGGTA,-0.128
11,TGAGGACCCGTA,0.0118
12,TGATAGGTGGTA,-0.0359
13,TTAAAGGAGCAC,0.18
14,TGATGGACGGTA,0.0655
15,TGATGGAGTGTA,0.0616
16,TAGTACGTGGTA,0.336
17,TCACACGTAGGA,0.457
18,TGAGTGCAGGTA,0.0764
19,TGACCTTAGGTA,0.0902
20,TGAGTAGCTGTA,-0.0992
21,TGATGACGTGTA,0.245
22,TGACTAGCGGTA,0.00614
23,TGAGTCGATGTA,-0.0631
24,TGATTACGCGTA,0.0729
25,TGATTATAAGTA,-0.177

row,Sequence,binding signal (log2 normalized fluorescence)
1,TGACACTTGTTA,0.3
2,TGATTGACTGTA,-0.12
3,TGATACGAGGTG,0.129
4,TGACGGTCTGTA,0.052
5,TGATATTAAGTA,-0.187
6,TGAACTAAGGTA,0.0714
7,TGAGCCCGTGTA,0.0147
8,TGAAGATTTGTA,-0.0356
9,TCACACGTGATA,0.75
10,TGACACGATATA,0.408
11,TGAAAGAGAGTA,-0.0282
12,TGAACATAAGTA,0.139
13,TGAGTGGTAGTA,0.216
14,TCACACTCGGTA,0.334
15,TGAGTCAGCGTA,0.0477
16,TGAAATAGCGTA,-0.0799
17,CGGCAAGTGGTA,0.258
18,TGACGGTCGGTA,0.00871
19,TGAGATATAGTA,-0.255
20,TGAACCACTGTA,0.264
21,TGATCGGACGTA,-0.027
22,TGAGTGGTCGTA,0.0867
23,TGAAATGGTGTA,0.209
24,TGACACTTGGTG,0.204
25,TGAACAACCGTA,0.108

row,Sequence,binding signal (log2 normalized fluorescence)
1,TGACATAACGTA,0.171
2,TGAAAATGTGTA,0.286
3,TGAGGCGTCGTA,-0.00813
4,TGAACAAGAGTA,0.0745
5,TGACTTGATGTA,0.193
6,TGAGCGTTTGTA,0.0822
7,TGACGCCCGGTA,0.231
8,TGAGCCATAGTA,-0.102
9,TGAAATCATGTA,0.225
10,TGATTGGGTGTA,-0.0624
11,TGACCCGTGTTA,0.364
12,TGAGTTATGGTA,-0.133
13,TGACCCGTCGTA,0.0664
14,TGAATCTGCGTA,0.0452
15,TGAGTCTTTGTA,-0.289
16,TGACTGACCGTA,0.145
17,TGAGCTACGGTA,-0.00753
18,TGAATGGACGTA,0.317
19,TGACCGAGGGTA,0.296
20,TGATAACGTGTA,0.499
21,CGGCACGTTGTA,0.562
22,GGAGAAGTGGTA,0.0907
23,TGACTCCCTGTA,0.242
24,TGATGATTAGTA,-0.151
25,TGATATTCAGTA,0.0713

row,Sequence,binding signal (log2 normalized fluorescence)
1,TGAACGGTCGTA,-0.227
2,TGATTGTACGTA,0.0238
3,TGACCTGATGTA,0.173
4,TGAAGTCCTGTA,-0.00573
5,TGAACGGATGTA,0.0491
6,TGAAATAGGGTA,-0.0659
7,TGAAACTCGGTA,-0.031
8,TGAGGACACGTA,0.137
9,TGATTGTCCGTA,-0.146
10,TGAGTCGTTGTA,0.0422
11,TGATACCAGGTA,0.0486
12,TGACATTGAGTA,0.237
13,TGATGATCCGTA,0.0332
14,TGAGGTTTGGTA,-0.0536
15,CGACACGTGGGC,0.893
16,TGAAGTCAAGTA,0.0942
17,TGATAGCCGGTA,-0.147
18,ATAGCTAAGATT,0.0482
19,TGAGCGAAAGTA,0.02
20,TGACCCCCTGTA,0.365
21,TGACATGCTGTA,0.524
22,TGAGCAAAGGTA,0.026
23,TGAGGAGTTGTA,-0.0459
24,TGATCGCTCGTA,-0.0784
25,TGACACGTACTA,0.373

row,Sequence,binding signal (log2 normalized fluorescence)
1,TGAAGCACAGTA,0.202
2,TGAGCTTCAGTA,-0.201
3,TGATCTCTAGTA,-0.0718
4,TGATACGCGGTA,0.121
5,TGAAATAAGGTA,0.0211
6,TGATTGGGCGTA,-0.181
7,TGACTATTGGTA,-0.0597
8,TGATTGATGGTA,-0.0118
9,TGAATCAGAGTA,0.0753
10,TGACTGGGAGTA,-0.142
11,TGAATATCAGTA,0.0287
12,TGACCAGGTGTA,0.341
13,TGAATCACAGTA,-0.0142
14,TGAGTATCTGTA,-0.104
15,TGATATAGAGTA,-0.213
16,TGAGCGCTGGTA,0.125
17,TGACAATTCGTA,0.0308
18,TGATGTAATGTA,0.000857
19,TGTACCGTGGTA,0.275
20,TGACATGCAGTA,0.219
21,TGATATGACGTA,0.0181
22,TGGCACTTGGTT,0.185
23,TGAGCGTACGTA,-0.0291
24,TGCCACGAGGAA,0.707
25,TGACTTCCGGTA,0.0704

row,Sequence,binding signal (log2 normalized fluorescence)
1,TGAAACAGTGTA,0.0867
2,TGAAACTGGGTA,-0.0496
3,TGAACAGTCGTA,0.104
4,TGATGATCTGTA,0.114
5,TGAAAGATCGTA,-0.0267
6,TGATTTCTCGTA,-0.0646
7,TGAGTCGAGGTA,0.0684
8,TGAAACCTTGTA,0.0437
9,TGATAAACGGTA,-0.106
10,TGAAGAAGGGTA,-0.0575
11,TGAAGTTATGTA,-0.0486
12,TGAGACGTGGTA,0.502
13,TGATAGTTTGTA,-0.214
14,TGACACGTCTTG,0.301
15,TGACGGCATGTA,0.495
16,TGAAGGTGTGTA,0.256
17,TGACCTGAAGTA,0.159
18,TGATGTAACGTA,0.116
19,TGATGCTTAGTA,-0.0553
20,TGCCACGCGGAA,0.651
21,TGCTACGGGGTA,0.0135
22,TGATGTGCGGTA,0.226
23,TGCGGCGTGGTA,0.399
24,TGACCAGATGTA,0.338
25,TGAGATGCCGTA,0.149

row,Sequence,binding signal (log2 normalized fluorescence)
1,TGACACGTGAGA,0.826
2,TAACACCTGGCA,0.625
3,TGACCCGTTGTA,0.131
4,TGTCACGTTGTA,0.642
5,TCCCACCTGGTA,0.512
6,TGACGCGCTGTA,0.468
7,TGATTTAATGTA,0.0643
8,TGAATCATCGTA,0.0995
9,TGAAAGGGAGTA,0.0508
10,TGAGCATATGTA,0.395
11,TGAAGAAATGTA,0.00236
12,TGATATTTGGTA,-0.137
13,CCCCACGTGGTA,0.854
14,TGATGGGTTGTA,0.152
15,TGCCGCGTGTTA,0.583
16,TGAGTTAGCGTA,-0.0921
17,TGAACACAGGTA,0.43
18,TGATCTCGGGTA,0.0794
19,TGAGGTAATGTA,0.138
20,TGACAGCCCGTA,0.168
21,TTAAACGTGGTA,0.608
22,TGATCGTTTGTA,-0.0191
23,TGATGCTCCGTA,0.0834
24,TGATGTATGGTA,0.123
25,TGAATAACAGTA,0.0502

row,Sequence,binding signal (log2 normalized fluorescence)
1,TGACACGTGAAT,0.712
2,TGACATGTGGAA,0.707
3,TGAGACCGGGTA,-0.145
4,TGACACGAGCTT,0.454
5,TGAACCAATGTA,0.186
6,TGACGCATTGTA,0.286
7,TGACTCAAAGTA,-0.0171
8,TGAGTATAAGTA,-0.121
9,AGATACGTGGTA,0.393
10,TGAGACCACGTA,0.323
11,TGAGGCTACGTA,-0.0825
12,TGAGGTCTGGTA,0.0604
13,TGATGTGCCGTA,0.144
14,TGAAATTAGGTA,0.0434
15,TGAGACCTGCTA,-0.0388
16,TGAACTACGGTA,0.0565
17,TGATGATGCGTA,0.112
18,TGAAGTACCGTA,0.085
19,TGAGGGGGAGTA,0.823
20,TGACTTTGCGTA,0.207
21,TGGCACGTGGTG,0.954
22,TGATGGCTAGTA,0.117
23,TGATTATGTGTA,0.113
24,TGAACGAAGGTA,0.0182
25,TGATAATTCGTA,-0.175

row,Sequence,binding signal (log2 normalized fluorescence)
1,TGACCTCAGGTA,0.101
2,CGTCACGTGGTT,0.74
3,TGATGTATAGTA,0.0515
4,TGATCTCGTGTA,0.41
5,TGAGGCCGGGTA,-0.114
6,TGACTGAGCGTA,0.00564
7,TGATTCTATGTA,-0.0824
8,TGACGTACGGTA,0.112
9,TGACAGCTGGTA,0.223
10,TGAACTGCGGTA,0.0357
11,TGATCTGCAGTA,-0.109
12,TGATGACTTGTA,0.195
13,TGACAATGGGTA,0.136
14,TGACTTGCGGTA,0.185
15,TGACTGCGTGTA,0.238
16,TGACTAAATGTA,0.0225
17,TGATTAATGGTA,0.103
18,TGATATGATGTA,0.0577
19,TGACCAGGGGTA,0.0822
20,TGACAGACAGTA,0.212
21,TGAAAGTTCGTA,-0.253
22,TTACACATGATA,0.494
23,TGATCCGGTGTA,0.0468
24,TGGCACGCGGTC,0.784
25,TGAAGACCGGTA,0.156

row,Sequence,binding signal (log2 normalized fluorescence)
1,TGAACCCACGTA,0.15
2,TACTATGCCATG,0.159
3,TCAGACGTGGTA,0.391
4,CGTCACGTGGTA,0.809
5,CACCGTCCTAGC,0.19
6,TGAGACCGTGTA,0.0583
7,AGACACGTGATA,0.851
8,TGACTCGTTGAA,0.199
9,TGAGGCCCTGTA,-0.0678
10,CGACACGTGCTT,0.852
11,TGAACGTCGGTA,0.0849
12,TGTCACGTGGTA,0.706
13,TGAAGAATGGTA,0.0608
14,TGACGGATTGTA,-0.0678
15,TGATTAGCGGTA,-0.0877
16,TTGGTGTACACT,0.328
17,TGAGAAGAGGTA,-0.0553
18,TGACGACGTGTA,0.332
19,TGATAAACCGTA,0.086
20,TGAAAAGATGTA,-0.0584
21,TGAATGCGAGTA,0.339
22,TGATGCGACGTA,0.209
23,TGAGCCCTGGTA,0.0851
24,TGAGACGGGGTC,0.233
25,TGACAAGCTGTA,0.207
